We go through 57 compounds from PMC4336329 (PLoS ONE, 2015).

About 2,200 (0.71%) of roughly 310,000 compounds showed an effect of 50% or more. The effect is printed as a negative number. This is one part of the list.

The target of this assay is human ether-à-go-go-related gene (hERG) potassium channel (human, UniProt Q12809). The assay can be described thus: primary screen, population patch clamp on CHO cells stably expressing hERG.
human ether-à-go-go-related gene (hERG) potassium channel, sequence (Q12809 whole entry, looked up): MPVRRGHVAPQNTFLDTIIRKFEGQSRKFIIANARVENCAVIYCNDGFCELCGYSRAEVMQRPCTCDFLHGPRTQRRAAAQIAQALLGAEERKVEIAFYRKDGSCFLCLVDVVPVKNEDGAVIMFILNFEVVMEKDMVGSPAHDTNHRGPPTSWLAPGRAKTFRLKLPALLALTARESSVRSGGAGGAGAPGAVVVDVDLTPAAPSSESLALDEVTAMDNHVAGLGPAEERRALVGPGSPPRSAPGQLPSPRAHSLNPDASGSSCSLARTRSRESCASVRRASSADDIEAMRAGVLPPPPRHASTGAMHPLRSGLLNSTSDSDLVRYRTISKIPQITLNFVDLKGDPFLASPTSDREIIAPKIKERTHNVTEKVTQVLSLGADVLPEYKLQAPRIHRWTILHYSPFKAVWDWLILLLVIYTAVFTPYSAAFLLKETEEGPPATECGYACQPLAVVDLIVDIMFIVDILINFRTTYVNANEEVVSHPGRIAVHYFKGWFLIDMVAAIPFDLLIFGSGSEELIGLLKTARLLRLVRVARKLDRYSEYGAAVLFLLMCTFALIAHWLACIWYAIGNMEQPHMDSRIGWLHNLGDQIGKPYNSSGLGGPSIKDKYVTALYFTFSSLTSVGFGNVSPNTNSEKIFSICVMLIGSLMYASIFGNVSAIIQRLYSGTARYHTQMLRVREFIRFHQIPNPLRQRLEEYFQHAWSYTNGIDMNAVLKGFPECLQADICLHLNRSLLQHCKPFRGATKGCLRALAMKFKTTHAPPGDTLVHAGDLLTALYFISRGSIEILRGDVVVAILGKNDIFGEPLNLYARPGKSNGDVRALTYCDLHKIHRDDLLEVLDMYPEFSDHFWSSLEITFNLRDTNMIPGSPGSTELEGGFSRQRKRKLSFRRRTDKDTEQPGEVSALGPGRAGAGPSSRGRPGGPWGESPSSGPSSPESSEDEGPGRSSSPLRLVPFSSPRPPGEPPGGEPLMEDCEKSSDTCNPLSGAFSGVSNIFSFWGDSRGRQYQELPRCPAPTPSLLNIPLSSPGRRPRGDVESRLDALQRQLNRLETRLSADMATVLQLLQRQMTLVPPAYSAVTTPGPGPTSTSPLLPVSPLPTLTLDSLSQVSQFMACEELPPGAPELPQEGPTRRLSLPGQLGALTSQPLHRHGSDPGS
Take `CC(NC(=O)c1cccc(Cn2cc([N+](=O)[O-])cn2)c1)c1ccc(C(C)(C)C)cc1` (stereo not drawn): the “hERG current change (%, negative = inhibition) at 1uM” value is on record as -1.58%. The value for `CCC(C)NC(=O)/C=C1\Sc2ccccc2NC1=O` (stereo not drawn) was 2.98%.

For `O=C(N/N=C\c1cccc(OC(=O)c2ccco2)c1)c1ccc2c(c1)OCO2`, the “hERG current change (%, negative = inhibition) at 1uM” value is -6.14%. Take `CCCCCCCNC(=O)CC(NS(=O)(=O)c1ccc(NC(C)=O)cc1)C(C)C` (stereo not drawn): the “hERG current change (%, negative = inhibition) at 1uM” value is given as 9.01%. `Cc1ccc(C)c(C(=O)COC(=O)c2cc([N+](=O)[O-])ccc2N2CCOCC2)c1`: the “hERG current change (%, negative = inhibition) at 1uM” value was 8.61%. For the compound `Cc1cc(-c2ccccc2)n(-c2ccc(C(=O)NC(C)C)cc2)n1`, the “hERG current change (%, negative = inhibition) at 1uM” value worked out at 17.8%. On to `CCOC(=O)c1cnc2ccc(OCC)cc2c1N1CCN(c2ccccc2OC)CC1`, for which the “hERG current change (%, negative = inhibition) at 1uM” value is given as 7.97%. For `Cc1cccc(NC(=O)C2CCCN(C(=O)Nc3ccc(F)cc3)C2)c1` (stereo not drawn), the “hERG current change (%, negative = inhibition) at 1uM” value was 10.6%. Then `Cn1c(=O)n(CC(=O)[O-])c(=O)c2c1nc1n2CCS1`, with 12.9%; and `O=C(Nc1cccnc1)c1ccc(COCC(F)(F)F)cc1`, with 10.3%; and `COc1ccc(CN2CCNC(=O)C2CC(=O)N(C)CCC2CCOCC2)c(OC)c1` (stereo not drawn), with 12.8%.

For the compound `CC(C)(C)C(=O)N1CCN(c2ncnc3scc(-c4ccccc4)c23)CC1`, the “hERG current change (%, negative = inhibition) at 1uM” value worked out at 6.67%.

Regarding `O=C(NCc1ccccc1)c1ccco1`, the “hERG current change (%, negative = inhibition) at 1uM” value was found to be 4.15%. Regarding `O=C(CSc1nnnn1-c1ccc2c(c1)CCC2)NCc1cccs1`, the “hERG current change (%, negative = inhibition) at 1uM” value is 10%. Then `CNC(=O)[C@H]1O[C@@H](n2cnc3c(NCc4cccc(I)c4)nc(Cl)nc32)[C@H](O)[C@@H]1O`, with 10.4%; and `CCOc1cc2[nH]c(=S)n(Cc3ccc(C)o3)c(=O)c2cc1OCC`, with -3.56%. The value for `COc1cccc2c1cc1c(=O)n(CC(=O)N3CCCCCC3)nc(C)n12` was 8.14%. For `CCC1CCCCN1CCCNC(=O)CNC(=O)Cn1ccc2ccccc2c1=O` (stereo not drawn), the “hERG current change (%, negative = inhibition) at 1uM” value is given as 12.3%. Turning to `C=CCn1c(N)c(C(=O)N2CCN(C)CC2)sc1=S`, the “hERG current change (%, negative = inhibition) at 1uM” value is -4.41%.

As for `C#CCNC(=O)C1=C[C@@H](c2coc3ccccc3c2=O)C[C@@H](OCCCCO)O1`, the “hERG current change (%, negative = inhibition) at 1uM” value is reported as 15.5%. In the case of `CCCCNC(=S)Nc1ccc(-c2nc3ccc(C)cc3s2)cc1`, the “hERG current change (%, negative = inhibition) at 1uM” value stood at 7.89%. With `CCOc1nc(OCC)c2cnn(C)c2n1`, the “hERG current change (%, negative = inhibition) at 1uM” value is 8.24%.

On to `O=C(c1cnc2c(c1)COc1ccc(Cl)cc1-2)c1ccccc1O`, for which the “hERG current change (%, negative = inhibition) at 1uM” value worked out at 0.0871%. For `O=c1cc(CN2CCN(c3ccc(O)cc3)CC2)nc2scc(-c3ccccc3)n12`, the “hERG current change (%, negative = inhibition) at 1uM” value turned out to be 13.3%. Consider `Cn1ncc2c(O/N=C(\N)c3ccc(C(F)(F)F)cc3)ncnc21`, for which the “hERG current change (%, negative = inhibition) at 1uM” value amounted to 9.69%.

Take `CCOc1ccc(S(=O)(=O)N2CCc3ccccc3C2)cc1`: the “hERG current change (%, negative = inhibition) at 1uM” value came out at 12.3%. Then `CCOc1c(Cl)cc(CNCC(C)C)cc1OC.Cl`, with 2.77%; and `CN(C)c1ccc(C(=S)N2CCCCC2)cc1`, with 9.84%. As to `Fc1cccc(CNC2CCN(CCc3ccccc3)CC2)c1`, the “hERG current change (%, negative = inhibition) at 1uM” value is reported as 3.85%. The value for `Cc1ccc(-n2c(C)cc(/C=N/NC(=O)CN(c3ccc(C)cc3C)S(C)(=O)=O)c2C)cc1` was 2.6%. The value for `CCOc1cc2c(cc1OC)C(c1cccc([N+](=O)[O-])c1)NCC2` (stereo not drawn) was 1.03%. As to `COC(=O)C1CCN(C(=O)COC(=O)Cn2cnnn2)CC1`, the “hERG current change (%, negative = inhibition) at 1uM” value worked out at 19.9%. As to `CCN(CC)C(=O)c1ccc(NS(=O)(=O)c2ccccc2)cc1`, the “hERG current change (%, negative = inhibition) at 1uM” value was 11.5%.

Consider `Cc1ccc(S(=O)(=O)NC(CC(=O)O)c2cccs2)cc1` (stereo not drawn), for which the “hERG current change (%, negative = inhibition) at 1uM” value is listed as 15.8%. Then `COc1ccc(C(=O)NC(=S)N2CC(C)OC(C)C2)cc1` (stereo not drawn), with 7.17%; and `CN(C)/C=N/c1cc(=O)n(C)c(=O)n1CC1CC1`, with 17.5%; and `Cc1ccc(/C=N\NC(=O)Cc2cccn2C)o1`, with 7.93%. The value for `O=C(CN1CCCCCC1)N1c2ccccc2Sc2ccccc21` was 19.8%; that for `O=C(CSc1ncn[nH]1)c1cccc([N+](=O)[O-])c1` was 11.5%; that for `CCOC(=O)N1CCN(CC(=O)Nc2sccc2C#N)CC1` was 4.5%.

For the compound `O=C(Nc1nccs1)C1C2/C=C\CCCCC21` (stereo not drawn), the “hERG current change (%, negative = inhibition) at 1uM” value was 10.3%. The value for `C[C@@]1([C@@H](NC(=O)c2cccs2)c2ccc(-c3ccccc3)cc2)C[C@H]1C1CCCCC1` was 16.3%; that for `Cn1c(N)c(C(=O)Nc2ccc3ccccc3c2)sc1=S` was 2.05%. Regarding `CC(C)N(Cc1ccccc1)C(=O)COC(=O)c1ccc(O)cc1`, the “hERG current change (%, negative = inhibition) at 1uM” value is on record as 6.51%.

`Cc1ccc2c(CN3CCN(Cc4ccccc4)CC3)cc(=O)oc2c1`: the “hERG current change (%, negative = inhibition) at 1uM” value was -84%.

In the case of `COn1cnnc1-c1ccccc1`, the “hERG current change (%, negative = inhibition) at 1uM” value was 6.55%. As to `CC(NC(=O)C(=O)NCCN1CCN(C(=O)c2ccc([N+](=O)[O-])cc2)CC1)c1ccccc1` (stereo not drawn), the “hERG current change (%, negative = inhibition) at 1uM” value was -67.8%.

Take `COc1ccc(NCc2nnc(SCC(=O)NNC(=O)c3ccc(C)cc3)n2C)cc1`: the “hERG current change (%, negative = inhibition) at 1uM” value worked out at 6.44%. In the case of `O=[N+]([O-])c1ccc(COc2ccc(CNc3ccccc3)cc2)cc1`, the “hERG current change (%, negative = inhibition) at 1uM” value was 10.6%. The value for `Cc1ccc(/C=N/Nc2nc(N3CCOCC3)nc(N3CCOCC3)n2)o1` was 10.6%.

Regarding `CCN1CCN(C(=O)CN(C)S(=O)(=O)c2cc(C)ccc2OC)CC1`, the “hERG current change (%, negative = inhibition) at 1uM” value was 10.4%.

In the case of `COc1ccc(N2CCN(S(=O)(=O)c3cccc(C(F)(F)F)c3)CC2)cc1`, the “hERG current change (%, negative = inhibition) at 1uM” value stood at 3.05%. Regarding `O=C(Nc1ncccc1O)c1cccc(S(=O)(=O)N2CCCc3ccccc32)c1`, the “hERG current change (%, negative = inhibition) at 1uM” value was found to be 7.7%. On to `COc1ccccc1N1CCN(Cc2ccc(Br)cc2)CC1.O=C(O)C(=O)O`, for which the “hERG current change (%, negative = inhibition) at 1uM” value is -6.63%.

For the compound `CCOC(=O)c1ccc2c(c1)N(Cc1ccccc1C)C(=O)c1ccccc1S2=O` (stereo not drawn), the “hERG current change (%, negative = inhibition) at 1uM” value was -1.62%.

For the compound `Cc1nn(CCCC(=O)NCCCN2CCN(C)CC2)c(=O)c2c1sc1ccccc12`, the “hERG current change (%, negative = inhibition) at 1uM” value was 15.1%.

As to `COCc1ccc(-c2c(-c3cc(OC)cc(OC)c3)oc(=O)c3cc(OC)c(OC)cc23)cc1`, the “hERG current change (%, negative = inhibition) at 1uM” value is 7.32%.
